The record followed here is PMC4336329 (PLoS ONE, 2015).

Hit rate of the full screen: of about 310,000 compounds, about 14,000 (4.5%) showed an effect of 50% or more. The effect is printed as a negative number. This is one part of the list.
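Also: peak tail current of the secondary pulse compared with the same well before compound.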

For this assay, the target named is human ether-à-go-go-related gene (hERG) potassium channel (human, UniProt Q12809). In words: primary screen, population patch clamp on CHO cells stably expressing hERG.
Sequence of human ether-à-go-go-related gene (hERG) potassium channel (Q12809 whole entry, looked up): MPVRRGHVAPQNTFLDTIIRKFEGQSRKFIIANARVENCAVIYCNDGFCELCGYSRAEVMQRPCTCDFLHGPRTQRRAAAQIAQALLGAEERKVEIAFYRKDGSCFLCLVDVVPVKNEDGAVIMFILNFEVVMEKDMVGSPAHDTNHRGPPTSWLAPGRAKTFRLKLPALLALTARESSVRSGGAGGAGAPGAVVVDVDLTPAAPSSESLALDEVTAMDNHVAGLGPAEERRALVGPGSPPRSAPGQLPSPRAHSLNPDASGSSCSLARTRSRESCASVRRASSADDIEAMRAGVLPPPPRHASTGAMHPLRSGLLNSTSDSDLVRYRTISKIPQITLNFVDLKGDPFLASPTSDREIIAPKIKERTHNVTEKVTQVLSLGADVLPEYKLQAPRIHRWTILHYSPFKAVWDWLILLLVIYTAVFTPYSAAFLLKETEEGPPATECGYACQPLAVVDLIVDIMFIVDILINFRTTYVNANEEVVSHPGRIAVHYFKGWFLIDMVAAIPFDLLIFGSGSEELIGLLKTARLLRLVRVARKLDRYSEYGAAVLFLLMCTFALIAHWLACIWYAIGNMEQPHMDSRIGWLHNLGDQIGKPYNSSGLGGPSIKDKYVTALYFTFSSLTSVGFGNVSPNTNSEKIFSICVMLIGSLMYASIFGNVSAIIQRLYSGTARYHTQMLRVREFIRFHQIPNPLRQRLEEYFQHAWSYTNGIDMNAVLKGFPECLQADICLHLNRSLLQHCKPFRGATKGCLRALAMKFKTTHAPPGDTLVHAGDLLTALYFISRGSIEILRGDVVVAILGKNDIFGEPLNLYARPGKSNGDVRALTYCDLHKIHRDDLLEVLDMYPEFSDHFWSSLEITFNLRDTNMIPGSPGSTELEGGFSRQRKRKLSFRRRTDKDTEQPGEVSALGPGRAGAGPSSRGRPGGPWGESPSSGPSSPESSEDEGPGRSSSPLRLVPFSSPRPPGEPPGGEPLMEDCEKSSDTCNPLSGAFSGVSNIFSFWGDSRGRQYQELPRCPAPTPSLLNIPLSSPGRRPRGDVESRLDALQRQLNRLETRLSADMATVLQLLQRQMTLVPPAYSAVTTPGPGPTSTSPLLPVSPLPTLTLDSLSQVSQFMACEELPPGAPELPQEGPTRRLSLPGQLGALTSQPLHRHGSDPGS
For the compound `Cc1nnsc1C(=O)Nc1cccc(Cl)c1C`, the “hERG current change (%, negative = inhibition) at 10uM” value stood at 9.32%.
Under `COc1ccc(Cl)cc1NC(=O)CSc1nc(C)cc(C)n1` stands -32.6%; under `CN1CCCC(CC2Oc3ccccc3Sc3ccccc32)C1.O=C(O)C(=O)O` (centres unmarked), -67%.
Regarding `O=[N+]([O-])c1ccccc1S(=O)(=O)Nc1cccc(-c2ccc(N3CCOCC3)nn2)c1`, the “hERG current change (%, negative = inhibition) at 10uM” value is on record as -8.23%.
Under `O=C(Nc1ccc2c(c1)nc1n2CCCCC1)c1cc(S(=O)(=O)N2CCOCC2)ccc1Cl` stands -15.5%; under `COc1ccccc1Nc1nc(NCCCN(C)C)nc(N)c1[N+](=O)[O-]`, -46.3%; under `CCNc1ccc(C(=O)OCC)cc1NC(=O)c1cccc(N(C)C)c1`, -24.6%.
With `N#Cc1c(C(F)(F)F)cc(C2CC2)nc1N1CCCC1`, the “hERG current change (%, negative = inhibition) at 10uM” value is 21.7%.
For `NC(=O)C1=C[C@H](c2ccc(C(F)(F)F)cc2)C[C@H](OCCCCO)O1`, the “hERG current change (%, negative = inhibition) at 10uM” value is -4.54%.
In the case of `CC(Sc1ccc(Cl)cc1)C(=O)NNC(=O)c1csc(N2CCOCC2)n1` (centres unmarked) it was -33.9%.
For `CCCc1nnc(NC(=O)CN2C(=O)c3ccccc3C2=O)s1`, the “hERG current change (%, negative = inhibition) at 10uM” value is -5.06%.
Under `Cc1cccn2cc(CCNC(=O)c3ccco3)nc12` stands -4.3%.
As to `CC(NC(=O)COc1ncnc2cc([N+](=O)[O-])ccc12)c1ccccc1` (centres unmarked), the “hERG current change (%, negative = inhibition) at 10uM” value was -34%.
Under `CSc1cc(CS(=O)(=O)c2ccccc2)nc(-c2ccccc2)n1` stands 5.46%.
Under `Nc1nnc(-c2cccnc2)s1` stands -2.17%; under `N#Cc1nc(-c2ccc(F)cc2)oc1N1CCCCC1`, 8.29%.
In the case of `Cc1cc(/C=C2\NC(=O)NC2=O)c(C)n1-c1ccc(N2CCOCC2)cc1` it was 3.46%; in that of `O=C(Nc1cccc2ccccc12)/C(=C/c1cccc([N+](=O)[O-])c1)NC(=O)c1cccs1`, -67.7%; in that of `CCOC(CNC(=O)C1CCN(S(=O)(=O)c2ccc3nc4c(c(C(=O)O)c3c2)CCCCC4)CC1)OCC`, 16.2%.
For `N#CCCN(C(=O)COC(=O)c1ccc2ccccc2n1)c1ccccc1`, the “hERG current change (%, negative = inhibition) at 10uM” value is listed as 12.1%.
On to `O=C(O)CC1c2ccccc2S(=O)(=O)N1Cc1ccccc1` (centres unmarked), for which the “hERG current change (%, negative = inhibition) at 10uM” value stood at 9.1%.
Under `Cc1cccc(C(=O)OC(C)CN2CCN(C)CC2)c1.Cl` (centres unmarked) stands -23.3%.
Take `O=C1CCc2cc(S(=O)(=O)N3CCC(C(=O)NCCC4=CCCCC4)CC3)ccc2N1`: the “hERG current change (%, negative = inhibition) at 10uM” value is 6.45%.
For `Cc1onc(-c2c(Cl)cccc2Cl)c1C(=O)c1ccc(F)cc1`, the “hERG current change (%, negative = inhibition) at 10uM” value was determined as 6.04%.
Consider `CCCCNCc1cc(Cl)c(OCCC)c(OCC)c1.Cl`, for which the “hERG current change (%, negative = inhibition) at 10uM” value is -19.9%.
In the case of `COc1cccc(CNc2nc(-c3cccnc3)nc3ccccc23)c1` it was -15.6%; in that of `COc1ccccc1NC(=O)C1=C(C)Nc2nnnn2C1c1ccncc1` (centres unmarked), -12.4%; in that of `CCc1nc2ccc(C(=O)N3CCN(CC)CC3)cc2nc1CC`, 24.1%.
In the case of `CN(C)C(CNC(=O)c1ccc2nc[nH]c2c1)c1ccccc1` (centres unmarked) it was 16.9%; in that of `Cc1cc(OCC(=O)c2ccc(Br)cc2)ccc1N1C(=O)CCC1=O`, 7.76%; in that of `CC1CN(S(=O)(=O)c2cn(C)c(=O)n(C)c2=O)CC(C)O1` (centres unmarked), 8.91%.
Under `Cc1cc(Nc2ccc(C)c(Cl)c2)nc(N2CCOCC2)n1` stands -8.43%.
On to `CCC(=O)Nc1nnc(SCC(=O)Nc2ccc(F)cc2)s1`, for which the “hERG current change (%, negative = inhibition) at 10uM” value was -21.3%.
As for `CC(C)(C)c1ccc(C(=O)NNC(=S)NCc2ccco2)cc1`, the “hERG current change (%, negative = inhibition) at 10uM” value is on record as 9.53%.
In the case of `CCn1c(SCc2nc3ccccc3s2)nnc1-c1ccccc1` it was -11%.
In the case of `CCN(Cc1ccccc1)C(=O)CCS(=O)(=O)c1cc2c(cc1Cl)NC(=O)CO2` it was -50.7%; in that of `COc1cc(NC(=O)CSc2ncccc2C(=O)OC(C)C)cc(OC)c1`, -8.73%.
In the case of `COc1ccc(-c2nc(NC(=O)CCNC(=O)c3ccco3)sc2C)cc1` it was -11.1%.
Take `COc1cc(/C=C/c2nc3ccccc3c(=O)n2-c2cccc(O)c2)ccc1O`: the “hERG current change (%, negative = inhibition) at 10uM” value is listed as -12.3%.
Under `CCc1c(C(=O)c2ccc(Cl)cc2)oc2c(C)c3oc(=O)cc(C)c3cc12` stands -0.731%; under `CN(C)S(=O)(=O)Nc1cc(Cl)cc(Cl)c1`, -0.782%; under `O=C(O)c1cccc(N/C(=N\S(=O)(=O)c2ccccc2)c2ccccc2)c1`, -1.41%.
Under `COc1ccc(NC(=O)CN2C(=O)COc3ccc(C)cc32)c(OC)c1` stands 20.2%; under `CN(Cc1cccc(C(F)(F)F)c1)Cc1nc(-c2cnccn2)no1`, 5.97%; under `COC(=O)[C@H](Cc1ccccc1)NC(=O)N1CC(C)OC(C)C1` (some centres unmarked), -2.77%.
On to `C/C(=N\NC(=O)CNC(=O)c1cccc(F)c1)c1ccc2ccccc2c1`, for which the “hERG current change (%, negative = inhibition) at 10uM” value was -24.4%.
Consider `CCCCNC(=O)c1ccccc1NC(=O)C1=C(C)OCCS1`, for which the “hERG current change (%, negative = inhibition) at 10uM” value was -4.94%.
As for `CC(C)NC(=O)CSc1nc(-c2cccs2)cc(-c2ccccc2)c1C#N`, the “hERG current change (%, negative = inhibition) at 10uM” value is on record as 8.14%.
`CC(C)C1Oc2ccccc2N(CC(=O)N2CCOCC2)C1=O` (centres unmarked): the “hERG current change (%, negative = inhibition) at 10uM” value amounted to 12%.
For the compound `CCCc1cc(=O)oc2cc(C)cc(OCC(=O)NC3CC3)c12`, the “hERG current change (%, negative = inhibition) at 10uM” value is listed as -5.57%.
In the case of `O=C(/C=C/c1ccc(Br)cc1)N1CCN(c2cccc(C(F)(F)F)c2)CC1` it was -8.52%; in that of `CCOc1ccc(S(=O)(=O)Nc2ccc(C(=O)NCC(c3ccco3)N(C)C)cc2)cc1` (centres unmarked), -19.3%.
In the case of `COc1ccc(N(C(C)C(=O)NC2CCCCCC2)S(C)(=O)=O)cc1` (centres unmarked) it was -4.43%.
Under `Cc1cccc(-c2nnc(SCC(=O)N3c4ccccc4CCc4ccccc43)n2C)c1` stands -25.8%; under `CCOC(=O)C(C)n1cnc2c(nnn2-c2ccc(F)cc2)c1=O` (centres unmarked), -9.26%; under `Cc1cc(C)cc(OCCCC(=O)O)c1`, 17.2%.
On to `Clc1nnc(N/N=C/c2ccccc2)c2ccccc12`, for which the “hERG current change (%, negative = inhibition) at 10uM” value is recorded as -7.44%.
As for `CC(=O)c1cccc(NC(=O)CN(c2cccc(F)c2)S(C)(=O)=O)c1`, the “hERG current change (%, negative = inhibition) at 10uM” value was -5.36%.
Take `CN(C)CCN(Cc1cc2cc3c(cc2[nH]c1=O)OCCO3)C(=S)NCC1CCCO1` (centres unmarked): the “hERG current change (%, negative = inhibition) at 10uM” value stood at 23%.
Under `COc1cc([N+](=O)[O-])ccc1NC(=O)CN(C)C` stands -15.9%; under `COc1cc(OC)nc(NC(=O)C(C)C)n1`, 11.4%; under `Cc1ccc(C(=O)OC2CCN(c3ccc([N+](=O)[O-])cc3)CC2)cc1`, -1.78%.
Take `Cc1c(O)cc2c(c1O)C(=O)CC(c1ccc(O)cc1)O2` (centres unmarked): the “hERG current change (%, negative = inhibition) at 10uM” value came to 1.64%.
As for `CCOc1ccccc1/C=N/NC(=O)C[n+]1ccccc1.[Cl-]`, the “hERG current change (%, negative = inhibition) at 10uM” value came to 1.63%.
Under `CCN(CC)C(=O)Cn1cc(C(=O)C(=O)N2CCN(C)CC2)c2ccccc21` stands 21.1%; under `CNC(=O)C1CC(=O)N(c2ccc(OCC(=O)Nc3ccc(OC)cc3)cc2)C1` (centres unmarked), 8.32%; under `CCc1ccc(C2=NN(c3ccc(S(N)(=O)=O)cc3)C(c3ccc(F)cc3)C2)cc1` (centres unmarked), 11%.
With `COc1cccc(C(=O)NC(C)CCc2ccccc2)c1` (centres unmarked), the “hERG current change (%, negative = inhibition) at 10uM” value is on record as -3.07%.
With `O=C(CSc1nnc(-c2cccnc2)s1)Nc1cccc(C(=O)O)c1`, the “hERG current change (%, negative = inhibition) at 10uM” value was 2.24%.
On to `C=C(C)C(=O)Nc1cccc(C2=NOC3(C2)C[C@H](C(N)=O)N(C(=O)c2ccccc2C(=O)c2ccccc2)C3)c1` (some centres unmarked), for which the “hERG current change (%, negative = inhibition) at 10uM” value was -9.31%.
For the compound `CCSc1nnc(NC(=O)CN(C)S(=O)(=O)c2ccc(F)cc2)s1`, the “hERG current change (%, negative = inhibition) at 10uM” value is on record as -26.3%.
Under `CN1C(C(=O)NCc2ccc(OC(F)(F)F)cc2)CC2Cn3c(nc4cc5ccccc5cc43)C21` (centres unmarked) stands -69.4%; under `CSc1ncccc1C(=O)OCC(=O)c1ccccc1Br`, 13.5%; under `Cc1cc2ncn(C(=O)N3CCCCCC3)c2cc1C`, 3.41%.
In the case of `Cc1ccccc1NCc1ccccc1O.Cl` it was -0.966%; in that of `CCCOC(=O)C(C)n1cnc2sc(C)c(C)c2c1=O` (centres unmarked), -3.15%; in that of `COc1ccc(C(=O)c2sc(Nc3cccc(OC)c3)c(C(=O)Nc3cccc(C)c3C)c2N)cc1`, 4.75%.
As for `COc1ccccc1CNC(=O)C/C(C)=N/NC(=O)Cc1ccc(OC)c(OC)c1`, the “hERG current change (%, negative = inhibition) at 10uM” value stood at 12.2%.
In the case of `COc1ccc(C(=O)NCCCNC(=O)c2cc3ccccc3[nH]2)cc1OC` it was -15.8%; in that of `Cc1ccc(S(=O)(=O)N2CCN(S(=O)(=O)N(C)C)CC2)c(C)c1`, -0.574%.
Regarding `CN1CCN(CC(=O)N(Cc2c(C#N)c3ccccc3n2C)c2ccccc2)CC1`, the “hERG current change (%, negative = inhibition) at 10uM” value was -14.7%.
As to `O=C(NCc1cccc(F)c1)C1CCC(=O)N(CCCN2CCOCC2)C1` (centres unmarked), the “hERG current change (%, negative = inhibition) at 10uM” value was 25.7%.
In the case of `Cc1nc(SCC(=O)O)n[nH]1` it was -4.54%; in that of `CC(=O)Nc1cccc(NC(=O)CSc2nccn2Cc2ccc(F)cc2)c1`, 0.742%.
Under `C/C(=N\Nc1ccc(C)c(Cl)c1)c1ccncc1` stands 24.8%.
In the case of `Cc1ncc(CN2CCC(CO)(CCc3ccccc3)CC2)s1` it was -60.4%; in that of `Cc1cc(=O)[nH]c2c3ccccc3nn12`, 13.2%; in that of `Cc1ccc(NC(=O)Nc2ccccc2)cc1[N+](=O)[O-]`, 6.95%.
`CCOC(=O)N1CCN(S(=O)(=O)c2ccc(C(=O)N(CCCN(C)C)c3nc4ccc(OC)cc4s3)cc2)CC1.Cl`: the “hERG current change (%, negative = inhibition) at 10uM” value was -73.5%.
